Experimental data reported in the supplement of paper PMC11125491.
± gives the standard deviation of the averaged measurements. Growth of baker's yeast expressing single-residue variants of Pneumocystis jirovecii dihydrofolate reductase in 8.8 or 44 µM methotrexate (about 75% and 90% inhibition of the wild type). Selection coefficient per generation; 0 = like wild type, above 0 = less sensitive, below 0 = more sensitive or loss of function. No active / inactive call per row; the paper calls resistant above 0.220 (8.8 µM) or 0.243 (44 µM) together with a significance test. At 44 µM about 15% of codons end with one read or none, so the lowest values are floors (replicate rank correlation 0.74; 0.94 at 8.8 µM).

B1: UniProt A0EPZ9; numbered along this chain (parent)
chain: MDWQKSLTLIVALTLSRGIGLKNDLPWKLKSDMMFFSRVTSGLLVTRSTGQMNVVLMGRKTWESLPAHSRPLKNRINVVISRQEVLDLGGGAYHARSLDDALALLSQIYDSTSKIQLNRVFVIGGGELCKAAMEHSRLNRIIATVIHNEVDCDVFFPIDFRSSQSCLPWRKQDHSVLEAWVGSKVPQGKINENGFIYEFEMWIRDI

Variants of: B1
Assay: selection coefficient against synonymous wild-type codons (log2 per generation); higher = faster growth than wild type
Conditions: with Saccharomyces cerevisiae carrying the variant on a plasmid
Description: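 Pooled growth of yeast carrying single-residue variants of P. jirovecii dihydrofolate reductase (own DFR1 gene intact), two passages at 30 °C, three cultures, sequenced before and after. Codons with under 15 starting reads are left out; codons of one change are averaged.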

| Variant | selection coefficient against synonymous wild-type codons (log2) (methotrexate 8.8 µM) | selection coefficient against synonymous wild-type codons (log2) (methotrexate 44 µM) |
| --- | --- | --- |
| N53I | -0.114 ± 0.023 | 0.0145 ± 0.063 |
| N53K | -0.396 ± 0.12 | -0.432 ± 0.049 |
| N53L | -0.286 ± 0.082 | -0.141 ± 0.13 |
| N53M | -0.172 ± 0.075 | -0.0739 ± 0.076 |
| N53P | 0.0287 ± 0.068 | 0.0334 ± 0.087 |
| N53Q | -0.107 ± 0.093 | -0.0675 ± 0.12 |
| N53R | -0.371 ± 0.09 | -0.279 ± 0.18 |
| N53S | -0.00453 ± 0.028 | -0.0241 ± 0.059 |
| N53T | 0.00322 ± 0.03 | 0.0104 ± 0.13 |
| N53V | -0.0366 ± 0.022 | 0.0923 ± 0.056 |
| N53W | -0.414 ± 0.27 | -0.243 ± 0.15 |
| N53Y | -0.326 ± 0.092 | -0.225 ± 0.094 |
| V54A | 0.0688 ± 0.043 | 0.112 ± 0.1 |
| V54C | -0.136 ± 0.087 | -0.174 ± 0.075 |
| V54D | -0.582 ± 0.1 | -0.335 ± 0.11 |
| V54E | -0.622 ± 0.035 | -0.375 ± 0.035 |
| V54F | -0.449 ± 0.12 | -0.318 ± 0.15 |
| V54G | -0.402 ± 0.13 | -0.279 ± 0.12 |
| V54H | -0.492 ± 0.071 | -0.245 ± 0.059 |
| V54I | -0.0909 ± 0.17 | -0.0743 ± 0.26 |
| V54K | -0.46 ± 0.03 | -0.171 ± 0.08 |
| V54L | -0.56 ± 0.13 | -0.339 ± 0.13 |
| V54M | -0.517 ± 0.1 | -0.337 ± 0.11 |

| Variant | selection coefficient against synonymous wild-type codons (log2) (methotrexate 8.8 µM) | selection coefficient against synonymous wild-type codons (log2) (methotrexate 44 µM) |
| --- | --- | --- |
| V54N | -0.534 ± 0.04 | -0.244 ± 0.046 |
| V54P | -0.226 ± 0.062 | -0.245 ± 0.13 |
| V54Q | -0.511 ± 0.12 | -0.305 ± 0.073 |
| V54R | -0.481 ± 0.053 | -0.233 ± 0.069 |
| V54S | -0.411 ± 0.14 | -0.278 ± 0.11 |
| V54T | -0.405 ± 0.18 | -0.269 ± 0.051 |
| V54W | -0.482 ± 0.082 | -0.277 ± 0.038 |
| V54Y | -0.527 ± 0.065 | -0.321 ± 0.016 |
| V55A | -0.552 ± 0.12 | -0.275 ± 0.12 |
| V55C | -0.267 ± 0.017 | -0.268 ± 0.043 |
| V55D | -0.48 ± 0.031 | -0.274 ± 0.13 |
| V55E | -0.565 ± 0.049 | -0.317 ± 0.057 |
| V55F | -0.0976 ± 0.045 | 0.163 ± 0.098 |
| V55G | -0.469 ± 0.15 | -0.264 ± 0.1 |
| V55H | -0.312 ± 0.054 | -0.0641 ± 0.036 |
| V55I | -0.166 ± 0.057 | -0.0277 ± 0.033 |
| V55K | -0.569 ± 0.05 | -0.321 ± 0.039 |
| V55L | -0.286 ± 0.11 | -0.223 ± 0.12 |
| V55M | -0.27 ± 0.093 | -0.272 ± 0.067 |
| V55N | -0.544 ± 0.071 | -0.254 ± 0.018 |
| V55P | -0.536 ± 0.042 | -0.288 ± 0.029 |
| V55Q | -0.542 ± 0.066 | -0.295 ± 0.063 |
| V55R | -0.535 ± 0.062 | -0.301 ± 0.053 |

| Variant | selection coefficient against synonymous wild-type codons (log2) (methotrexate 8.8 µM) | selection coefficient against synonymous wild-type codons (log2) (methotrexate 44 µM) |
| --- | --- | --- |
| V55S | -0.512 ± 0.11 | -0.251 ± 0.11 |
| V55T | -0.531 ± 0.093 | -0.317 ± 0.087 |
| V55W | -0.58 ± 0.036 | -0.333 ± 0.041 |
| V55Y | -0.676 ± 0.06 | -0.295 ± 0.15 |
| L56A | -0.563 ± 0.14 | -0.264 ± 0.16 |
| L56C | -0.297 ± 0.052 | -0.196 ± 0.1 |
| L56D | -0.612 ± 0.043 | -0.365 ± 0.057 |
| L56E | -0.562 ± 0.1 | -0.357 ± 0.052 |
| L56F | -0.127 ± 0.024 | -0.156 ± 0.091 |
| L56G | -0.548 ± 0.066 | -0.292 ± 0.07 |
| L56H | -0.371 ± 0.038 | -0.123 ± 0.039 |
| L56I | 0.131 ± 0.033 | 0.127 ± 0.095 |
| L56K | -0.574 ± 0.042 | -0.217 ± 0.15 |
| L56M | -0.00461 ± 0.021 | -0.0528 ± 0.039 |
| L56N | -0.577 ± 0.034 | -0.329 ± 0.034 |
| L56P | -0.526 ± 0.079 | -0.299 ± 0.056 |
| L56Q | -0.52 ± 0.032 | -0.23 ± 0.073 |
| L56R | -0.532 ± 0.053 | -0.27 ± 0.089 |
| L56S | -0.497 ± 0.15 | -0.273 ± 0.13 |
| L56T | -0.583 ± 0.045 | -0.314 ± 0.051 |
| L56V | -0.0375 ± 0.044 | -0.133 ± 0.18 |
| L56W | -0.509 ± 0.043 | -0.303 ± 0.037 |
| L56Y | -0.591 ± 0.032 | -0.343 ± 0.043 |

| Variant | selection coefficient against synonymous wild-type codons (log2) (methotrexate 8.8 µM) | selection coefficient against synonymous wild-type codons (log2) (methotrexate 44 µM) |
| --- | --- | --- |
| M57A | -0.48 ± 0.13 | -0.274 ± 0.094 |
| M57C | -0.504 ± 0.049 | -0.214 ± 0.14 |
| M57D | -0.593 ± 0.05 | -0.261 ± 0.17 |
| M57E | -0.503 ± 0.016 | -0.213 ± 0.087 |
| M57F | -0.155 ± 0.027 | -0.117 ± 0.11 |
| M57G | -0.518 ± 0.048 | -0.27 ± 0.054 |
| M57H | -0.396 ± 0.19 | -0.191 ± 0.17 |
| M57I | -0.253 ± 0.045 | -0.275 ± 0.17 |
| M57K | -0.337 ± 0.1 | -0.124 ± 0.051 |
| M57L | -0.349 ± 0.12 | -0.211 ± 0.098 |
| M57N | -0.518 ± 0.13 | -0.312 ± 0.079 |
| M57P | -0.42 ± 0.029 | -0.172 ± 0.029 |
| M57Q | -0.517 ± 0.019 | -0.227 ± 0.05 |
| M57R | -0.48 ± 0.1 | -0.255 ± 0.051 |
| M57S | -0.523 ± 0.086 | -0.304 ± 0.053 |
| M57T | -0.48 ± 0.15 | -0.241 ± 0.1 |
| M57V | -0.481 ± 0.2 | -0.254 ± 0.1 |
| M57W | -0.487 ± 0.059 | -0.362 ± 0.061 |
| M57Y | -0.0257 ± 0.051 | 0.00717 ± 0.049 |
| G58A | 0.322 ± 0.019 | 0.378 ± 0.051 |
| G58C | -0.228 ± 0.036 | -0.114 ± 0.018 |
| G58D | -0.46 ± 0.11 | -0.268 ± 0.15 |
| G58E | -0.533 ± 0.046 | -0.303 ± 0.11 |

| Variant | selection coefficient against synonymous wild-type codons (log2) (methotrexate 8.8 µM) | selection coefficient against synonymous wild-type codons (log2) (methotrexate 44 µM) |
| --- | --- | --- |
| G58F | -0.599 ± 0.099 | -0.351 ± 0.085 |
| G58H | -0.599 ± 0.013 | -0.309 ± 0.053 |
| G58I | -0.61 ± 0.043 | -0.321 ± 0.085 |
| G58K | -0.494 ± 0.077 | -0.288 ± 0.03 |
| G58L | -0.58 ± 0.12 | -0.313 ± 0.099 |
| G58M | -0.0369 ± 0.11 | 0.0958 ± 0.016 |
| G58N | -0.28 ± 0.13 | 0.0731 ± 0.037 |
| G58P | -0.495 ± 0.12 | -0.302 ± 0.053 |
| G58Q | 0.259 ± 0.07 | 0.768 ± 0.054 |
| G58R | -0.519 ± 0.083 | -0.271 ± 0.098 |
| G58S | -0.282 ± 0.13 | -0.225 ± 0.19 |
| G58T | -0.267 ± 0.047 | -0.222 ± 0.13 |
| G58V | -0.504 ± 0.15 | -0.274 ± 0.11 |
| G58W | -0.552 ± 0.038 | -0.304 ± 0.038 |
| G58Y | -0.197 ± 0.16 | -0.185 ± 0.19 |
| R59A | 0.124 ± 0.028 | 0.09 ± 0.076 |
| R59C | -0.117 ± 0.12 | -0.0509 ± 0.16 |
| R59D | -0.0892 ± 0.029 | 0.145 ± 0.1 |
| R59E | 0.201 ± 0.043 | 0.312 ± 0.08 |
| R59F | -0.0168 ± 0.046 | -0.173 ± 0.096 |
| R59G | 0.0365 ± 0.031 | 0.0775 ± 0.033 |
| R59H | -0.0956 ± 0.069 | -0.0218 ± 0.029 |
| R59I | 0.243 ± 0.024 | 0.285 ± 0.008 |
